# Laboratory results taken from the supplement of paper PMC8728848.
# The other results are listed elsewhere or left out.
# B1: GS7807H-bfa-490-18-490 (Bacteroides fragilis) (protein)
# chain: GNLEEMNIDPDNATQTHPKLLLTQICMNAFKRGTDGMYATKKVIQADGESADQYYKWTRGSFGYYDNLRNVQKMGEEAERVNAPVYTALTKFFRAYYFYELTLRFGDIPYSQALKGEKEEIYTPEYDAQEDVFAGILQELREADEILANDASVIDGDIIYNGNSTQWRKLINSFRLKVLMTLSNHTTVGNINIASEFKNIATNSPLMNSLADNGQLVYLDQQGNRYPQFNAQWSGYYMDDTFIQRMRERRDPRLFIFSAQTNKGKTEGKPIDDFSSYEGGDPAAPYSDAIIKVSEGTISPINDRFRTDPIVEPTMLMGYAELQQILAEAVVRGWISGNAQTYYEKGIRASFSFYETHAKDYAGYLNENAVAQYLKEPLVDFTQASGTEEQIERIIMQKYLVTFYQGNWDSFYEQLRTGYPDFRRPAGTEIPKRWMYPQGEYDNNGTNVETAITRQFGAGNDKINQATWWQKKS
# Key:
# Assay in all cases: glycan array binding signal (z-score within array); higher = stronger binding
# Conditions in all cases: glycan notation: IUPAC condensed, linker removed
# [1] = target: GlcNAc(b1-3)Gal(b1-4)GlcNAc(b1-3)Gal(b1-4)GlcNAc(b1-3)GalNAc
# Summary of the method: (§1)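 From the Consortium for Functional Glycomics database, 3228 arrays were curated, keeping only those whose protein sequence was available. Binding is given as a within-array Z-score averaged across arrays sharing a protein sequence and across linkers. Negative Z-scores can be read as non-binding.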
# [2] = target: GlcNAc(b1-3)Gal(b1-4)GlcNAc(b1-3)GalNAc
# Summary of the method: as §1
# [3] = target: GlcNAc(b1-3)Gal(b1-4)GlcNAc(b1-3)[GlcNAc(b1-3)Gal(b1-4)GlcNAc(b1-3)]GalNAc
# Summary of the method: as §1
# [4] = target: GlcNAc(b1-3)Gal(b1-4)GlcNAc(b1-6)[Gal(b1-3)]GalNAc
# Summary of the method: as §1
# [5] = target: GlcNAc(b1-3)Gal(b1-4)GlcNAc(b1-6)[GlcNAc(b1-3)Gal(b1-3)]GalNAc
# Summary of the method: as §1
# [6] = target: GlcNAc(b1-3)Gal(b1-4)GlcNAc(b1-6)[GlcNAc(b1-3)]Gal(b1-4)GlcNAc
# Summary of the method: as §1
# GlcNAc(b1-3)GalNAc = target: GlcNAc(b1-3)GalNAc
# Summary of the method: as §1
# GlcNAc(b1-3)Man = target: GlcNAc(b1-3)Man
# Summary of the method: as §1
# [7] = target: GlcNAc(b1-3)[GlcNAc(b1-4)][GlcNAc(b1-6)]GlcNAc
# Summary of the method: as §1
# [8] = target: GlcNAc(b1-3)[GlcNAc(b1-6)]Gal(b1-4)GlcNAc
# Summary of the method: as §1
# [9] = target: GlcNAc(b1-3)[GlcNAc(b1-6)]GalNAc
# Summary of the method: as §1
# [10] = target: GlcNAc(b1-4)Gal(b1-4)GlcNAc
# Summary of the method: as §1
# GlcNAc(b1-4)GlcNAc = target: GlcNAc(b1-4)GlcNAc
# Summary of the method: as §1
# [11] = target: GlcNAc(b1-4)GlcNAc(b1-4)GlcNAc
# Summary of the method: as §1
# [12] = target: GlcNAc(b1-4)GlcNAc(b1-4)GlcNAc(b1-4)GlcNAc(b1-4)GlcNAc
# Summary of the method: as §1
# [13] = target: GlcNAc(b1-4)GlcNAc(b1-4)GlcNAc(b1-4)GlcNAc(b1-4)GlcNAc(b1-4)GlcNAc
# Summary of the method: as §1
# [14] = target: GlcNAc(b1-4)[GlcNAc(b1-6)]GalNAc
# Summary of the method: as §1
# [15] = target: GlcNAc(b1-6)Gal(b1-4)GlcNAc
# Summary of the method: as §1
# GlcNAc(b1-6)GalNAc = target: GlcNAc(b1-6)GalNAc
# Summary of the method: as §1
# [16] = target: GlcNAc6S(b1-3)Gal(b1-4)GlcNAc
# Summary of the method: as §1
# Kdn(a2-3)Gal(b1-3)GalNAc = target: Kdn(a2-3)Gal(b1-3)GalNAc
# Summary of the method: as §1
# Kdn(a2-3)Gal(b1-3)GlcNAc = target: Kdn(a2-3)Gal(b1-3)GlcNAc
# Summary of the method: as §1
# Kdn(a2-3)Gal(b1-4)Glc = target: Kdn(a2-3)Gal(b1-4)Glc
# Summary of the method: as §1
# Kdn(a2-3)Gal(b1-4)GlcNAc = target: Kdn(a2-3)Gal(b1-4)GlcNAc
# Summary of the method: as §1
# [17] = target: Kdn(a2-3)Gal(b1-4)[Fuc(a1-3)]GlcNAc
# Summary of the method: as §1
# Kdn(a2-6)Gal(b1-4)GlcNAc = target: Kdn(a2-6)Gal(b1-4)GlcNAc
# Summary of the method: as §1
# [18] = target: Man(a1-2)Man(a1-2)Man(a1-3)Man
# Summary of the method: as §1
# [19] = target: Man(a1-2)Man(a1-2)Man(a1-6)[Man(a1-3)]Man
# Summary of the method: as §1
# Man(a1-2)Man(a1-3)Man = target: Man(a1-2)Man(a1-3)Man
# Summary of the method: as §1
# [20] = target: Man(a1-2)Man(a1-3)[Man(a1-2)Man(a1-6)]Man
# Summary of the method: as §1
# [21] = target: Man(a1-2)Man(a1-3)[Man(a1-2)Man(a1-6)]Man(a1-6)[Man(a1-2)Man(a1-2)Man(a1-3)]Man
# Summary of the method: as §1
# [22] = target: Man(a1-2)Man(a1-3)[Man(a1-2)Man(a1-6)]Man(a1-6)[Man(a1-2)Man(a1-2)Man(a1-3)]Man(b1-4)GlcNAc(b1-4)GlcNAc
# Summary of the method: as §1
# [23] = target: Man(a1-2)Man(a1-3)[Man(a1-6)]Man(a1-6)[Man(a1-2)Man(a1-3)]Man(b1-4)GlcNAc(b1-4)GlcNAc
# Summary of the method: as §1
# [24] = target: Man(a1-2)Man(a1-6)[Man(a1-3)]Man(a1-6)[Man(a1-2)Man(a1-2)Man(a1-3)]Man
# Summary of the method: as §1
# [25] = target: Man(a1-2)Man(a1-6)[Man(a1-3)]Man(a1-6)[Man(a1-2)Man(a1-2)Man(a1-3)]Man(b1-4)GlcNAc(b1-4)GlcNAc
# Summary of the method: as §1
# Man(a1-3)[Man(a1-6)]Man = target: Man(a1-3)[Man(a1-6)]Man
# Summary of the method: as §1
# [26] = target: Man(a1-3)[Man(a1-6)]Man(a1-6)[Man(a1-2)Man(a1-3)]Man(b1-4)GlcNAc(b1-4)GlcNAc
# Summary of the method: as §1
binder,measurement,setting,value
B1,glycan array binding signal (z-score),[1],-0.957
same,glycan array binding signal (z-score),[2],-0.264
same,glycan array binding signal (z-score),[3],-0.52
same,glycan array binding signal (z-score),[4],-0.422
same,glycan array binding signal (z-score),[5],0.312
same,glycan array binding signal (z-score),[6],-0.108
same,glycan array binding signal (z-score),GlcNAc(b1-3)GalNAc,-0.454
same,glycan array binding signal (z-score),GlcNAc(b1-3)Man,-0.537
same,glycan array binding signal (z-score),[7],-0.26
same,glycan array binding signal (z-score),[8],-0.55
same,glycan array binding signal (z-score),[9],-0.65
same,glycan array binding signal (z-score),[10],0.012
same,glycan array binding signal (z-score),GlcNAc(b1-4)GlcNAc,-0.257
same,glycan array binding signal (z-score),[11],-0.106
same,glycan array binding signal (z-score),[12],-0.468
same,glycan array binding signal (z-score),[13],-0.531
same,glycan array binding signal (z-score),[14],-0.389
same,glycan array binding signal (z-score),[15],0.528
same,glycan array binding signal (z-score),GlcNAc(b1-6)GalNAc,0.29
same,glycan array binding signal (z-score),[16],0.061
same,glycan array binding signal (z-score),Kdn(a2-3)Gal(b1-3)GalNAc,0.233
same,glycan array binding signal (z-score),Kdn(a2-3)Gal(b1-3)GlcNAc,-0.161
same,glycan array binding signal (z-score),Kdn(a2-3)Gal(b1-4)Glc,-0.586
same,glycan array binding signal (z-score),Kdn(a2-3)Gal(b1-4)GlcNAc,0.863
same,glycan array binding signal (z-score),[17],-0.095
same,glycan array binding signal (z-score),Kdn(a2-6)Gal(b1-4)GlcNAc,0.821
same,glycan array binding signal (z-score),[18],-0.826
same,glycan array binding signal (z-score),[19],-0.537
same,glycan array binding signal (z-score),Man(a1-2)Man(a1-3)Man,0.369
same,glycan array binding signal (z-score),[20],-0.512
same,glycan array binding signal (z-score),[21],-0.685
same,glycan array binding signal (z-score),[22],0.436
same,glycan array binding signal (z-score),[23],-0.58
same,glycan array binding signal (z-score),[24],-0.652
same,glycan array binding signal (z-score),[25],-0.028
same,glycan array binding signal (z-score),Man(a1-3)[Man(a1-6)]Man,0.452
same,glycan array binding signal (z-score),[26],-0.318
